Hit rate of the full screen: of about 310,000 compounds, about 2,200 (0.71%) showed an effect of 50% or more. The effect is printed as a negative number. The list shows a part of the results.
biological target: human ether-à-go-go-related gene (hERG) potassium channel (human, UniProt Q12809); assay: primary screen, population patch clamp on CHO cells stably expressing hERG
Sequence (Q12809 whole entry, looked up): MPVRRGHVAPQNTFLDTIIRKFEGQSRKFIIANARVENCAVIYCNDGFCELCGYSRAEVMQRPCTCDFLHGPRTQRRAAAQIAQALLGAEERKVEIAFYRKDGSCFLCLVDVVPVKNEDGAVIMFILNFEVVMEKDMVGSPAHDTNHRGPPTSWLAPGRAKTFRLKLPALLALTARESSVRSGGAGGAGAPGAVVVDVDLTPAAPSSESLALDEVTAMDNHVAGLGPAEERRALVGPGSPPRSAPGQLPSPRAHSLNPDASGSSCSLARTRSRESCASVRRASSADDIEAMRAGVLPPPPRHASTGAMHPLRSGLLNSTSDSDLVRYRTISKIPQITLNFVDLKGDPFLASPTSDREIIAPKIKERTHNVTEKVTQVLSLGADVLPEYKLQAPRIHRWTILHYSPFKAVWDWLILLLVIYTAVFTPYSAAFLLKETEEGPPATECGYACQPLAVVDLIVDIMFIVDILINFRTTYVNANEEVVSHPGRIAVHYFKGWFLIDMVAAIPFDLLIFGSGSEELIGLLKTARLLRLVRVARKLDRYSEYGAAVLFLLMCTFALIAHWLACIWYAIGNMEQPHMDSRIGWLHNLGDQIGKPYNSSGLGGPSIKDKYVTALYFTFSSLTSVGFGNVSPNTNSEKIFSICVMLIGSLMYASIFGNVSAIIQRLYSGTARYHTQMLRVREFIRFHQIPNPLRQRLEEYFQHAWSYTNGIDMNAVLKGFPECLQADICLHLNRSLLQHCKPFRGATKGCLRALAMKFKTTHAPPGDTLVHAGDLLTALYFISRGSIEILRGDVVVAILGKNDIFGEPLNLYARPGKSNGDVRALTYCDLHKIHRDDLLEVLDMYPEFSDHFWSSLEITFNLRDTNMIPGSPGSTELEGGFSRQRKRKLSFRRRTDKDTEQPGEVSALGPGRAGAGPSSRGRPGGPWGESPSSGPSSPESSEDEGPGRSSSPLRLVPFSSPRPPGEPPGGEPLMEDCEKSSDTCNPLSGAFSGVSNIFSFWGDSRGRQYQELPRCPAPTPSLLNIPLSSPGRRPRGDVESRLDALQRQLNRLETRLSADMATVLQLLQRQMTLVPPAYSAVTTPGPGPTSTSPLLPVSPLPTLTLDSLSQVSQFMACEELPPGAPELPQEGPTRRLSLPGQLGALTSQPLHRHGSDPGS

Going from `COc1ccc(-n2c(SCC(=O)Nc3sc4c(c3C#N)CCCC4)nnc2-c2ccc(O)cc2)cc1` to `COc1ccc(NC(=O)CSc2nc3c([nH]c4ccccc43)c(=O)n2C)cc1`, the “hERG current change (%, negative = inhibition) at 1uM” value rises from -3.18% to 1.67%.

First: Cc1cc(C(=O)N(C)CC(=O)Nc2ccc(Cl)c(C(F)(F)F)c2)no1
Second: CN(CC(=O)Nc1cccc(F)c1)C(=O)c1ccncc1
The “hERG current change (%, negative = inhibition) at 1uM” value of the first is higher: 15.5% for the first, 3.81% for the second.

First: Cn1c(SCc2nc(-c3ccc(Br)cc3)no2)nnc1-c1ccco1
Second: Cc1cc(-c2ccco2)n(-c2ccccc2)n1
The “hERG current change (%, negative = inhibition) at 1uM” value of the first is lower: -20.2% for the first, 16% for the second.

Going from `Cc1ccc(NC(=S)NNC(=O)C2CC2c2ccc(C)cc2)cc1` (stereo not shown) to `Cc1nc2cc(NC(=O)C3COc4ccccc4O3)ccc2s1` (stereo not shown), the “hERG current change (%, negative = inhibition) at 1uM” value rises from -10.4% to 12.9%.

First: O=C(COC(=O)C(Cc1ccccc1)NC(=O)c1ccc(Cl)cc1)c1ccc(Cl)cc1 (stereo not shown)
Second: N#C/C(C(=O)NCc1ccco1)=C1/SC(Cc2ccc(Cl)cc2)C(=O)N1c1ccccc1 (stereo not shown)
The “hERG current change (%, negative = inhibition) at 1uM” value of the first is lower: 2.97% for the first, 6.62% for the second.

First: Cc1cc(C(=O)CSc2nnc3ccccn23)c(C)n1-c1ccccc1
Second: CN(C)C(CNC(=O)c1ccc2ccccc2n1)c1ccccc1 (stereo not shown)
The “hERG current change (%, negative = inhibition) at 1uM” value of the first is lower: -10.6% for the first, 14.5% for the second.

Going from `C=CCN(c1ccccc1)S(=O)(=O)c1cccc(C(=O)NNC(=O)c2ccncc2)c1` to `O=C(NNc1cccc(Cl)c1)c1cccnc1Oc1ccccc1`, the “hERG current change (%, negative = inhibition) at 1uM” value rises from -5.29% to 10.8%.

Going from `Cn1cccc1C(=O)NCCc1ccc(Cl)cc1` to `COC(=O)Cc1c(O)ccn(CCc2ccccc2)c1=O`, the “hERG current change (%, negative = inhibition) at 1uM” value rises from 8.8% to 16.4%.

Going from `CNCCC1Sc2ccccc2Oc2ccccc21.O=C(O)C(=O)O` (stereo not shown) to `CN(C)CCOc1ccccc1Cc1ccccc1.O=C(O)CC(O)(CC(=O)O)C(=O)O`, the “hERG current change (%, negative = inhibition) at 1uM” value falls from -6.55% to -19.8%.

First: CN(C)c1ccc2c(c1)N=C(c1ccco1)OP2(=S)N1CCOCC1 (stereo not shown)
Second: COc1ccccc1NC(=O)Nc1ccccc1C(=O)NCCCN1CCOCC1
The “hERG current change (%, negative = inhibition) at 1uM” value of the first is higher: 12.6% for the first, 10.2% for the second.

Going from `COc1cccc(OC)c1OC(=O)/C=C/c1ccc(C)o1` to `COc1cccc(C(=O)O/N=C(\N)c2ccncc2)c1OC`, the “hERG current change (%, negative = inhibition) at 1uM” value rises from 10.1% to 10.3%.

Compared with `Cc1ccc2c(c1)-c1c(cnn1CC(=O)N1CCCN(Cc3ccccc3F)C1)CO2`, `COc1cccc(CNC(=O)c2ccccc2SCC(=O)N2CCCC2)c1` is lower in “hERG current change (%, negative = inhibition) at 1uM” value: 7.57% for the first, -5.92% for the second.

First: O=C(/C=C/c1ccco1)Nc1cccc(-c2nc3ccccc3[nH]2)c1
Second: O=C(OCc1ccc(Br)cc1)c1cccc(-c2nnc(-c3ccccc3)o2)c1
The “hERG current change (%, negative = inhibition) at 1uM” value of the first is lower: -9.64% for the first, 9.76% for the second.

First: O=S(=O)(N/N=C/c1c(F)cccc1Cl)c1ccccc1
Second: NC(N)=Nc1cc2ccccc2c2ccccc12
The “hERG current change (%, negative = inhibition) at 1uM” value of the first is lower: 2.89% for the first, 7.56% for the second.

First: c1nc(NCCN2CCOCC2)c2sc3nc(N4CCOCC4)c4c(c3c2n1)CCC4
Second: COC(=O)c1ccc(/C=C2\SC(=S)N(CCCC(=O)NCCCN3CCOCC3)C2=O)cc1
The “hERG current change (%, negative = inhibition) at 1uM” value of the first is lower: -5.55% for the first, 6.04% for the second.

First: CCOc1cccc2sc(=NC(=O)c3ccco3)n(CC(=O)OC)c12
Second: CCOc1ccc2nc(NS(=O)(=O)c3cccs3)sc2c1
The “hERG current change (%, negative = inhibition) at 1uM” value of the first is lower: 8.52% for the first, 18.3% for the second.

Going from `Cc1c(CNC(=O)C2CCC(=O)N(CCc3ccccc3)C2)cnn1C` (stereo not shown) to `O=C(CN1C(=O)NC2(CCc3ccccc3C2)C1=O)NCC(F)(F)F` (stereo not shown), the “hERG current change (%, negative = inhibition) at 1uM” value falls from 9.31% to 7.31%.

First: CCOC(=O)C(c1ccccc1)C(Nc1cc(C(F)(F)F)cc(C(F)(F)F)c1)c1ccccn1 (stereo not shown)
Second: CCOC(=O)N1CCN(C(=O)c2ccc(S(=O)(=O)Nc3cccc(C(F)(F)F)c3)cc2)CC1
The “hERG current change (%, negative = inhibition) at 1uM” value of the first is higher: 9.94% for the first, 6.09% for the second.

First: CN1CCN(S(=O)(=O)c2ccc(N(C)Cc3ccc(OC(F)F)cc3)c([N+](=O)[O-])c2)CC1
Second: CCOC(=O)c1cc(-c2ccc(OC(F)F)cc2)nc2c1c(=O)[nH]c(=O)n2C
The “hERG current change (%, negative = inhibition) at 1uM” value of the first is lower: -12.6% for the first, 1.44% for the second.

First: CCOC(=O)N1CCC(NC(=O)C2CCCN(Cc3nc(-c4cccc(C)c4)oc3C)C2)CC1 (stereo not shown)
Second: CC(C)S(=O)(=O)N1CCCC(C(=O)c2cccc(Cl)c2)C1 (stereo not shown)
The “hERG current change (%, negative = inhibition) at 1uM” value of the first is lower: -24.2% for the first, 13.6% for the second.

Going from `CCOc1ccc(-c2c(C(=O)N/N=C/c3ccncc3)nnn2-c2nonc2N)cc1` to `CC(=C/c1ccccc1)/C=N/NC(=O)c1cnccn1`, the “hERG current change (%, negative = inhibition) at 1uM” value rises from 6.39% to 13.3%.

First: Cc1cc(NC(=O)CSc2nc3cc(Cl)ccc3c(=O)n2CC(C)C)no1
Second: CCOC(=O)c1nn(-c2ccc(Cl)cc2C)ccc1=O
The “hERG current change (%, negative = inhibition) at 1uM” value of the first is higher: 11.1% for the first, 5.24% for the second.

Going from `CC(C)c1ccccc1NC(=O)Nc1ccc2c(c1)OCO2` to `COc1ccc(NC(=O)Cn2nnc(C(=O)NCc3ccccc3OC)c2N)cc1Cl`, the “hERG current change (%, negative = inhibition) at 1uM” value falls from 11.6% to 11.2%.

Compared with `O=C1C=CC(=O)N1Nc1ccc(Br)cc1`, `Oc1ccc(-c2c(-c3ccsc3)sc3ccccc23)cc1` is lower in “hERG current change (%, negative = inhibition) at 1uM” value: 17.7% for the first, 13% for the second.

Going from `O=c1[nH]cnc(O)c1C(c1cccc([N+](=O)[O-])c1)c1c(O)nc[nH]c1=O` to `CCCc1cc(=O)oc2c(C)c(OS(C)(=O)=O)ccc12`, the “hERG current change (%, negative = inhibition) at 1uM” value falls from 12.5% to -1.33%.

Compared with `Cc1ccccc1CSCCNC(=O)CCSc1ccccc1`, `O=C(Cn1cccc1)N1CCN(c2ccc(F)cc2)CC1` is lower in “hERG current change (%, negative = inhibition) at 1uM” value: 18.9% for the first, 7.59% for the second.

Going from `CC(=O)/C(N=Nc1cc2c(cc1[N+](=O)[O-])OCCO2)=C(\C)O` to `CCC(=O)OC1(C(=O)CCl)[C@@H](C)C[C@H]2[C@@H]3CCC4=CC(=O)C=C[C@]4(C)[C@@]3(F)[C@@H](O)C[C@@]21C` (stereo partly shown), the “hERG current change (%, negative = inhibition) at 1uM” value falls from 16.6% to 11.9%.

In the case of `Cc1ccc(CNc2cc(-c3nn4c(C)nnc4s3)ccc2C)s1`, the “hERG current change (%, negative = inhibition) at 1uM” value is reported as 15.1%.
